Assay results from publication PMC6823378, “Clathrin light chain A drives selective myosin VI recruitment to clathrin-coated pits under membrane tension” (Nature Communications, 2019).
Results are given in words; binding and its absence hold for the method and conditions named. For part of these data: In cells and extracts the contact can be indirect. Some binding calls cover weakened binding; strength is not graded here. For part of these data: Tags and fused reporters may be left off the sequences shown. Ends that are not written are not given here.

Protein sequences, listed by entry. Tags and fused reporters are not part of them.
UniProt Q00610: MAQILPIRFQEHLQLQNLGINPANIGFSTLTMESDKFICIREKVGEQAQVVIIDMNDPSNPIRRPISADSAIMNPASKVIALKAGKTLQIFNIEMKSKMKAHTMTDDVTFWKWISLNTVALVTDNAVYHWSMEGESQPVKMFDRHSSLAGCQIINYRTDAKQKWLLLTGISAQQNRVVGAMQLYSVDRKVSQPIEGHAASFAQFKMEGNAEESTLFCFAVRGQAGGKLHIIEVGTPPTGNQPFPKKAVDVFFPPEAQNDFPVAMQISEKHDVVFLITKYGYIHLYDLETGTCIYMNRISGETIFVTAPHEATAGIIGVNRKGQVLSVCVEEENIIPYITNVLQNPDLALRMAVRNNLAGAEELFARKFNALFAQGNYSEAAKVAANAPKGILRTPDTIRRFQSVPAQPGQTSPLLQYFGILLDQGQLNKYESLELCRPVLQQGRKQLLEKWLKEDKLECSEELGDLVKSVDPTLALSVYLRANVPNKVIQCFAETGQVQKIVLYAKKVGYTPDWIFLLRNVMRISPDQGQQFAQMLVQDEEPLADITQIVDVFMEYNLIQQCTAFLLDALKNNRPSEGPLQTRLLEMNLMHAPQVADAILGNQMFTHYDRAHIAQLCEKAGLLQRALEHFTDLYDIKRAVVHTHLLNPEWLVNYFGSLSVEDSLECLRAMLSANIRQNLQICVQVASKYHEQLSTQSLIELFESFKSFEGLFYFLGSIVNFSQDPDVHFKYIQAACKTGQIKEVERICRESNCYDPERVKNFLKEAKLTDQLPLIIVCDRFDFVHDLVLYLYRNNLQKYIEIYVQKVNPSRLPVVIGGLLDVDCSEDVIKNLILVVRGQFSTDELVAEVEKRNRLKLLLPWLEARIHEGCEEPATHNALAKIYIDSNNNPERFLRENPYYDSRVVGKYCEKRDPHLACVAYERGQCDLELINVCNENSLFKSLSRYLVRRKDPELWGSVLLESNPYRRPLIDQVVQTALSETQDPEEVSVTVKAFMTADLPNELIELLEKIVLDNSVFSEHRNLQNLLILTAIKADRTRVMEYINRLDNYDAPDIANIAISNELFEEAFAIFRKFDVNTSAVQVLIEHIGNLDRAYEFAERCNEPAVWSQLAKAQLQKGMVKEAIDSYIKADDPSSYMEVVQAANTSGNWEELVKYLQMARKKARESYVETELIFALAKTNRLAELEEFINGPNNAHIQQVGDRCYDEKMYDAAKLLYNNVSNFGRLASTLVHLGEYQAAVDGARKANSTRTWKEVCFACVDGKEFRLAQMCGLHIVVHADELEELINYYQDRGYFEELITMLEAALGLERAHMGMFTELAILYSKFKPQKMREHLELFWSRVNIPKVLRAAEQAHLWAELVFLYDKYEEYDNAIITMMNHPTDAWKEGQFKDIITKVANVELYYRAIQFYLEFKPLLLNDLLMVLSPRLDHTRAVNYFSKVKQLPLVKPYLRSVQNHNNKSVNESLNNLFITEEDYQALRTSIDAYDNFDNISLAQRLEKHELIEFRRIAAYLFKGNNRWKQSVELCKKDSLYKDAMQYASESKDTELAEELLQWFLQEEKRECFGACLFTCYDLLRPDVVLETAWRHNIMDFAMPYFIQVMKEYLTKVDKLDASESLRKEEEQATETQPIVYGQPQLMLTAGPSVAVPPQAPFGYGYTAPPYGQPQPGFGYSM

Assays:
[1] = target: T1, RFP-CLCa wild type (rat) (rat) (UniProt P08081); experiment: co-IP; lysates (1 mg, JS buffer) of confluent Caco-2 cells expressing RFP-rat CLCa WT or I54D, depleted of endogenous CLCs by siRNA or mock treated; RFP-Trap 120 min at 4 °C; immunoblot
T1 sequence: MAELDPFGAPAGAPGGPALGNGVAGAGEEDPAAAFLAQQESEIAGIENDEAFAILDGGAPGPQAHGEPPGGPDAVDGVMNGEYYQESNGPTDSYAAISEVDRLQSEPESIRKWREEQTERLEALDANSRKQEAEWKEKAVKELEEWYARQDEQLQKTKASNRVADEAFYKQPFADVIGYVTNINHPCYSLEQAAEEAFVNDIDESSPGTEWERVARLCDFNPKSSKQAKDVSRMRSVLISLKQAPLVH

[2] = target: T2, RFP-CLCa I54D (rat) (rat) (UniProt P08081); experiment: as above
T2 sequence: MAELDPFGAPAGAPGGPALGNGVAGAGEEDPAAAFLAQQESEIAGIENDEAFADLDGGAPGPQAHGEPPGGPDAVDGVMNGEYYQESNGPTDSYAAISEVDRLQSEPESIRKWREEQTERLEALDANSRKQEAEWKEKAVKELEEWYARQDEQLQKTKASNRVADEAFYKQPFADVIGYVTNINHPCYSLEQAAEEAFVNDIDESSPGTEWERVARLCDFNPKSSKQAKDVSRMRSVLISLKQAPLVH

[3] = target: myosin VI^998–1131 of the long isoform (myosin VI_(long)), cleaved from GST and purified (human) (UniProt Q9UM54); experiment: SEC; 50 μM of each at 1:1 molar ratio, 15 min at 4 °C, Superdex75 (5/150); fractions by SDS-PAGE and Coomassie; both purified
[4] = target: T3, GST-CLCb full length (human) (UniProt P09497); experiment: pull-down; GST-CLC proteins (1.5 μM) on glutathione sepharose beads incubated 1 h at 4 °C in JS buffer with cleaved and purified myosin VI fragments; SDS-PAGE, Coomassie; both purified
T3 sequence: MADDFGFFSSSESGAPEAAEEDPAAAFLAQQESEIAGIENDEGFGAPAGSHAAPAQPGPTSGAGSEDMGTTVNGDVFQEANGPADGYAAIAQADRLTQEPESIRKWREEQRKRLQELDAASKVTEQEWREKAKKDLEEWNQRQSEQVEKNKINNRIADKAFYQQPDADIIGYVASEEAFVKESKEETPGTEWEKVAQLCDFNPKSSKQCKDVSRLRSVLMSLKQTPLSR

[5] = target: T4, GST-CLCa full length (human) (UniProt P09496); experiment: as above
T4 sequence: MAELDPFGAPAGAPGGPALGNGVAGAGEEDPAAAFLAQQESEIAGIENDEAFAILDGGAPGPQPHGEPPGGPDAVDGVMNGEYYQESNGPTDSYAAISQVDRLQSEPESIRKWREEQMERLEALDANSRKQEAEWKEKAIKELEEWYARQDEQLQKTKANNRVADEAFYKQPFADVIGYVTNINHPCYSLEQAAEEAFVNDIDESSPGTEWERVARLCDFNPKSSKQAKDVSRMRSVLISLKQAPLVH

[6] = target: GST-myosin VI^1050–1131 (human) (UniProt Q9UM54); experiment: pull-down; GST-myosin VI^1050–1131 wild type and mutants on beads with lysates (1 mg) from HEK293T cells; immunoblot with anti-CLCa antibody; only the target purified
[7] = target: GST-myosin VI^1050–1131 with a single substitution of Y1121 (human) (UniProt Q9UM54); experiment: as above
[8] = target: myosin VI^1050–1131 of the long isoform, cleaved from GST and purified (UniProt Q9UM54); experiment: condition: 380 µM CLCa I54D titrated into 20 µM myosin VI^1050–1131; ITC; 380 µM CLCa WT or I54D titrated into 20 µM Hip1R^346–655 or myosin VI^1050–1131 in the cell; 20 mM Tris-HCl pH 8.0, 150 mM NaCl, 2.5% glycerol, 25 °C; one-set-of-sites model; both purified
GST-CLCa Δ46-61 (human) = target: T5, GST-CLCa Δ46-61 (human) (UniProt P09496); experiment: pull-down; GST-CLC proteins (1.5 μM) on glutathione sepharose beads incubated 1 h at 4 °C in JS buffer with cleaved and purified myosin VI fragments; SDS-PAGE, Coomassie; both purified
T5 sequence: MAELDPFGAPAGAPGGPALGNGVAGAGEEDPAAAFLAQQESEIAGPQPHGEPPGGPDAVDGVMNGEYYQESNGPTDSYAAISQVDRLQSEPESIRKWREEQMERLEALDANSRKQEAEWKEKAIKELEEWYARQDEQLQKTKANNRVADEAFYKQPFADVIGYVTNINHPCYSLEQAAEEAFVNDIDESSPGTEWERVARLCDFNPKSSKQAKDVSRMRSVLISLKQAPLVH

GST-CLCa I54A (human) = target: T6, GST-CLCa I54A (human) (UniProt P09496); experiment: as above
T6 sequence: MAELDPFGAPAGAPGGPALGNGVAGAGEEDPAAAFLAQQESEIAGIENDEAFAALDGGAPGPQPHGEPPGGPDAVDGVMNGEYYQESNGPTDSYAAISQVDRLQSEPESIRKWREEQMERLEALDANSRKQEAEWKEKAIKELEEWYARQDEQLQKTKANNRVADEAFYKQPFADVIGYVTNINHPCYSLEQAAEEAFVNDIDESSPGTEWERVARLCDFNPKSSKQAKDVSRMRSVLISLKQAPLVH

GST-CLCa I54D (human) = target: T7, GST-CLCa I54D (human) (UniProt P09496); experiment: pull-down; competition: GST-CLC protein on GSH beads pre-incubated with 2.5 μM His-Hip1R^346–655 for 1 h at 4 °C in JS buffer, then increasing amounts of myosin VI fragment; Coomassie and immunoblot; both purified
T7 sequence: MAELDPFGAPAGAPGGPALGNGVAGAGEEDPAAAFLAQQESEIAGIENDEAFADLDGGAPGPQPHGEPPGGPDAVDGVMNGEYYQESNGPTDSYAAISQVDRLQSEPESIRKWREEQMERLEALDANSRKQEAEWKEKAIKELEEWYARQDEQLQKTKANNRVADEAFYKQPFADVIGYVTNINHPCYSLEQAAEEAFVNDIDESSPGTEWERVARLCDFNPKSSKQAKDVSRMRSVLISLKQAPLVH

[9] = target: T3, GST-CLCb full length (human); experiment: as above
[10] = target: T4, GST-CLCa full length (human); experiment: as above

clathrin heavy chain (CHC) of Caco-2 cell lysate (from UniProt Q00610 1-1675)
binding [1]: binds
binding [2]: binds

myosin VI of Caco-2 cell lysate (from UniProt Q9UM54 1-1294)
binding [1]: binds

B1: GST-CLCa fragment of amino acids 47–97 (domain or fragment, human, UniProt P09496 47-97, looked up)
chain: ENDEAFAILDGGAPGPQPHGEPPGGPDAVDGVMNGEYYQESNGPTDSYAAI
notes: clathrin light chain A (CLCa), human, amino acids 47–97; also called CLCa 47–97; source: E. coli Rosetta (DE3), on glutathione-sepharose beads
binding [3]: binds

B2: myosin VI^998–1131 of the long isoform (myosin VI_(long)), cleaved from GST and purified (domain or fragment, human, UniProt Q9UM54 998-1131, looked up)
chain: QQQAVLEQERRDRELALRIAQSEAELISDEAQADLALRRSLDSYPVSKNDGTRPKMTPEQMAKEMSEFLSRGPAVLATKAAAGTKKYDLSKWKYAELRDTINTSCDIELLAACREEFHRRLKVYHAWKSKNKKR
notes: source: E. coli Rosetta (DE3), GST fusion cleaved with PreScission Protease, purified (ion exchange)
binding [4]: no binding
binding [5]: binds

B3: CLCa full length, bacterially produced (ITC; reconstitution of cages) (natural protein, human, UniProt P09496 1-248, looked up)
chain: MAELDPFGAPAGAPGGPALGNGVAGAGEEDPAAAFLAQQESEIAGIENDEAFAILDGGAPGPQPHGEPPGGPDAVDGVMNGEYYQESNGPTDSYAAISQVDRLQSEPESIRKWREEQMERLEALDANSRKQEAEWKEKAIKELEEWYARQDEQLQKTKANNRVADEAFYKQPFADVIGYVTNINHPCYSLEQAAEEAFVNDIDESSPGTEWERVARLCDFNPKSSKQAKDVSRMRSVLISLKQAPLVH
notes: clathrin light chain A (CLCa), human; Cleavage from GST is told for the cage reconstitution; also called CLCa FL; CLCa WT; source: bacterially produced and cleaved from GST, purified
binding [6]: binds
binding [7]: binds

B4: CLCa I54D full length (ITC) (natural protein, human, UniProt P09496 1-248, looked up)
chain: MAELDPFGAPAGAPGGPALGNGVAGAGEEDPAAAFLAQQESEIAGIENDEAFADLDGGAPGPQPHGEPPGGPDAVDGVMNGEYYQESNGPTDSYAAISQVDRLQSEPESIRKWREEQMERLEALDANSRKQEAEWKEKAIKELEEWYARQDEQLQKTKANNRVADEAFYKQPFADVIGYVTNINHPCYSLEQAAEEAFVNDIDESSPGTEWERVARLCDFNPKSSKQAKDVSRMRSVLISLKQAPLVH
notes: clathrin light chain A (CLCa), human, I54D
binding [8]: no binding

B5: myosin VI^1050–1131 of the long isoform, cleaved from GST and purified (domain or fragment, human, UniProt Q9UM54 1050-1131, looked up)
chain: RPKMTPEQMAKEMSEFLSRGPAVLATKAAAGTKKYDLSKWKYAELRDTINTSCDIELLAACREEFHRRLKVYHAWKSKNKKR
notes: 15N- or 13C,15N-labelled in some NMR samples; also called Myo6; source: E. coli Rosetta (DE3) or BL21 (DE3), GST fusion cleaved with PreScission Protease, purified (ion exchange or SEC)
binding (GST-CLCa Δ46-61 (human)): no binding
binding (GST-CLCa I54A (human)): binds
binding [5]: binds

B6: His-Hip1R coiled-coil region (amino acids 346–655) (domain or fragment, UniProt O75146 346-655)
chain: GSVKDDRDLQIESLKREVEMLRSELEKIKLEAQRYIAQLKSQVNALEGELEEQRKQKQKALVDNEQLRHELAQLRAAQLEGERSQGLREEAERKASATEARYNKLKEKHSELVHVHAELLRKNADTAKQLTVTQQSQEEVARVKEQLAFQVEQVKRESELKLEEKSDQLEKLKRELEAKAGELARAQEALSHTEQSKSELSSRLDTLSAEKDALSGAVRQREADLLAAQSLVRETEAALSREQQRSSQEQGELQGRLAERESQEQGLRQRLLDEQFAVLRGAAAEAAGILQDAVSKLDDPLHLRCTSSPD
binding (GST-CLCa I54D (human)): binds
binding [9]: binds
binding [10]: binds
